Experimental findings from the supplement of paper PMC4604168 (melanoma cell lines) are described below.

Common to all, as to experiment: cell count relative to DMSO control; melanoma cells; higher = more viable cells
Common to all, as to details: library dose: standard library concentration; 72 h

Assay [1] concerns 501Mel.
Assay [2] deals with A101D.
Assay [3] concerns A2058.
Assay [4] relates to A375.

The list shows a part of the results. Most values come without repeats; read them as rough.
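Further: cells treated in 1,536-well plates, then fixed and DAPI-stained, with nuclei counted from automated high-throughput microscope images.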

For the molecule `CC(C)C[C@H](NC(=O)[C@H](Cc1ccccc1)NC(=O)c1cnccn1)B(O)O` [Bortezomib] + c1cc(-c2cnn3cc(-c4ccc(OCCN5CCCCC5)cc4)cnc23)ccn1 [Dorsomorphin] (first compound 0.005 µM, partner dose 2 µM), the cell count amounted to 1.55% in assay [1], 7.7% in assay [2], 6.88% in assay [3] and 72% in assay [4].

Turning to `CC(C)C[C@H](NC(=O)[C@H](Cc1ccccc1)NC(=O)c1cnccn1)B(O)O` [Bortezomib] + O=C(O)C(=O)Nc1sc2c(c1C(=O)O)CCNC2 [TCS401] (first compound 0.005 µM, partner dose 8.33333 µM), the cell count in assay [1] stood at 28%; in assay [2], 8.26%; in assay [3], 22.3%; in assay [4] it was 133%.

As for `CC(C)C[C@H](NC(=O)[C@H](Cc1ccccc1)NC(=O)c1cnccn1)B(O)O` [Bortezomib] + Oc1nc(-c2ccc(C(F)(F)F)cc2)nc2c1CSCC2 [XAV939] (first compound 0.005 µM, partner dose 10 µM), the cell count in assay [1] worked out at 61.6%; in assay [2] it was 50.5%; in assay [3] it was 78.6%; in assay [4], 105%.

As to `COc1ccc(C2=N[C@@H](c3ccc(Cl)cc3)[C@@H](c3ccc(Cl)cc3)N2C(=O)N2CCNC(=O)C2)c(OC(C)C)c1` [Nutlin-3] + CCc1ccc(CCOc2ccc(CC3SC(=O)NC3=O)cc2)nc1 [pioglitazone] (first compound 0.5 µM, partner dose 10 µM), the cell count in assay [1] came out at 94.3%; in assay [2] it was 68.7%; in assay [3] it was 96.1%; in assay [4] it was 83.4%.

As to `Cc1cc(Nc2cc(N3CCN(C)CC3)nc(/C=C/c3ccccc3)n2)n[nH]1` + Oc1nc(-c2ccc(C(F)(F)F)cc2)nc2c1CSCC2 [XAV939] (first compound 0.2 µM, partner dose 10 µM), the cell count in assay [1] turned out to be 110%; in assay [2], 87.6%; in assay [3] it was 69.3%; in assay [4], 91.4%.

As for `Cc1cn(-c2cc(NC(=O)c3ccc(C)c(Nc4nccc(-c5cccnc5)n4)c3)cc(C(F)(F)F)c2)cn1` [nilotinib] + Cn1cc(/C=C2\C(=O)Nc3cccnc32)c2ccccc21 [GW441756] (first compound 1 µM, partner dose 2 µM), the cell count in assay [1] was found to be 79.8%; in assay [2], 83.6%; in assay [3], 97%; in assay [4], 138%.

Regarding `Cn1c(=O)n(-c2ccc(C(C)(C)C#N)cc2)c2c3cc(-c4cnc5ccccc5c4)ccc3ncc21` + O=S(=O)(c1ccccc1)N(CC(F)(F)F)c1ccc(C(O)(C(F)(F)F)C(F)(F)F)cc1 [T0901317] (first compound 0.02 µM, partner dose 7 µM), the cell count in assay [1] was 46.7%; in assay [2] it was 64.6%; in assay [3] it was 60%; in assay [4] it was 95.5%.

For the molecule `CC(C)C[C@H](NC(=O)[C@H](Cc1ccccc1)NC(=O)c1cnccn1)B(O)O` [Bortezomib] + Oc1cc(-c2nc(-c3ccccc3)[nH]c2-c2ccncc2)ccc1Cl [L779450] (first compound 0.005 µM, partner dose 1 µM), the cell count was 7.01% in assay [1], 11.3% in assay [2], 9.64% in assay [3] and 88.8% in assay [4].

On to `CC(C)C[C@H](NC(=O)[C@H](Cc1ccccc1)NC(=O)c1cnccn1)B(O)O` [Bortezomib] + O=S(=O)(c1ccccc1)N(CC(F)(F)F)c1ccc(C(O)(C(F)(F)F)C(F)(F)F)cc1 [T0901317] (first compound 0.005 µM, partner dose 7 µM), for which the cell count came to 6.89% in assay [1], 12.8% in assay [2], 7.11% in assay [3] and 103% in assay [4].

With `CC(C)C[C@H](NC(=O)[C@H](Cc1ccccc1)NC(=O)c1cnccn1)B(O)O` [Bortezomib] + N#Cc1c(O)c2c(-c3ccc(-c4ccccc4O)cc3)csc2[nH]c1=O [A769662] (first compound 0.005 µM, partner dose 10 µM), the cell count was found to be 8.64% in assay [1], 8.32% in assay [2], 5.11% in assay [3] and 103% in assay [4].

As for `Cc1cc(Nc2cc(N3CCN(C)CC3)nc(/C=C/c3ccccc3)n2)n[nH]1` + Cc1cc([N+](=O)[O-])ccc1NS(=O)(=O)c1cc(Cl)ccc1Cl [FH535] (first compound 0.2 µM, partner dose 5 µM), the cell count in assay [1] was determined as 61.4%; in assay [2] it was 70.7%; in assay [3], 75.7%; in assay [4], 79.7%.

For `COc1ccc(C2=N[C@@H](c3ccc(Cl)cc3)[C@@H](c3ccc(Cl)cc3)N2C(=O)N2CCNC(=O)C2)c(OC(C)C)c1` [Nutlin-3] + CCN(CC)CCCCNc1ncc2cc(-c3cc(OC)cc(OC)c3)c(NC(=O)NC(C)(C)C)nc2n1 [PD173074] (first compound 0.5 µM, partner dose 0.5 µM), the cell count in assay [1] stood at 66.1%; in assay [2] it was 58.2%; in assay [3], 84.3%; in assay [4], 95%.

On to `CC(C)C[C@H](NC(=O)[C@H](Cc1ccccc1)NC(=O)c1cnccn1)B(O)O` [Bortezomib] + COc1ccc2c(c1)CCC1C2CCC2(C)C(NCCCCCCN3C(=O)C=CC3=O)CCC12 [U73122] (first compound 0.005 µM, partner dose 2 µM), for which the cell count was 25.3% in assay [1], 7.2% in assay [2], 8.11% in assay [3] and 83.6% in assay [4].
